Data published in the RNAGym collection of RNA variant scans (doi:10.1093/nar/gkz1192).
Read counts are not given, so values of variants with three or more changes are uncertain.

B1: CPEB3 Ribozyme (parent)
chain: UAACAGGGGGCCACAGCAGAAGCGUUCACGUCGCAGCCCCUGUCAGAUUCUGGUGAAUCUGCGAAUUCUGCUGUAUAUCUC

Variants of: B1
Test: self-cleavage, relative activity (ratio to wild type); higher = more cleavage; in vitro, sequencing
Outline: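 Libraries of CPEB3 self-cleaving ribozyme mutants came from rounds of error-prone PCR and carried barcodes, which DNA sequencing matched to variants. In vitro transcription used T7 RNA polymerase at 37°C for 5 hours, with a further 15 min in DNase I before EDTA stopped the reaction; the ribozymes cleaved during both steps. The RNA was reverse transcribed with template switching and sequenced on Illumina. Relative activity is the cleaved/total read fraction of a variant divided by that of the unmutated ribozyme, averaged over three batches with at least 5 reads.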
For UAACAGGGGGCCACAGCGGAAGCGUUCACGCCGCAGCCCCUGUCAGAUUCUGGUGAAUCUGUGAAAUCUGCUGUAUACCUC [A18G U31C C62U U66A U78C], the self-cleavage was 0.05. UAACAGGGGGCCACAGCGGAAGCGUUCACGCCGCAGCCCCUGUCAGAUUCUCGUGAAUCUGCGAACUCCGCUGUAUAUCUC [A18G U31C G52C U66C U69C] gave a self-cleavage of 0.11. Variant UAACAGGGGGCCACAGCGGAAGCGUUCACGCCGCAGCCCCUGUCAGAUUCUGGUGAAUCUGCGAAUUCUGCUAUAUAUCUC [A18G U31C G73A] has a self-cleavage of 0.59. In the case of UAACAGGGGGCCACAGCGGAAGCGUUCACGCCGCAGCCCCAGUCAGAUUCUGGUGAAUCUGCGAAUUCUGCUGUAUAUCUC [A18G U31C U41A], the self-cleavage is reported as 0.34. For UAACAGGGGGCCACAGCGGAAGCGUUCACGCCGCAGCCCCUGGCAGAUUCUGGUGAAUCUGCGAAUUCUGCUGUAUAUCUC [A18G U31C U43G], the self-cleavage was 0.07. For UAACAGGGGGCCACAGCGGAAGCGUUCACGCCGCAGCCCCUGUCAGAUUCCCGUGAAUCUGCGAACUCUGCUGUAUAUCUC [A18G U31C U51C G52C U66C], the self-cleavage was 0.15. UAACAGGGGGCCACAGCGGAAGCGUUCACGCCGCAGCCCCUGUCAGAUUCUGGUGAAUCUGCGAAUUCUGCUGAAUAUCUC [A18G U31C U74A] showed a self-cleavage of 0.36. Variant UAACAGGGGGCCACAGCGGAAGCGUUCACGCCGCAGCCCCUGUCAGAUUCUGGUGAAUCUGCGAAUUCUGCUGUAUAACCC [A18G U31C U78A U80C] has a self-cleavage of 0.38. For UAACAGGGGGCCACAGCGGAAGCGUUCACGGCGCAGCCCCUGCCAGAUUCUGGUGGACCUGCGAAUUCUGCUGAAUAUCUC [A18G U31G U43C A56G U58C U74A], the self-cleavage was 0.21. Variant UAACAGGGGGCCACAGCGGAAGCGUUCACGUCGCAGCCCCAGUCGGAAUCUGGUGAAUCUGCGAAUUCCGCUGUAUAUCUC [A18G U41A A45G U48A U69C] has a self-cleavage of 0.4. Work on UAACAGGGGGCCACAGCGGAAGCGUUCACGUCGCAGCCCCAGUCAGAUUCUGGUGGAUCUGCGAAUUCUGCUGUAUAUCUC [A18G U41A A56G] yielded a self-cleavage of 0.31. Work on UAACAGGGGGCCACAGCGGAAGCGUUCACGUCGCAGCCCCAGUCAGAUUCUGGUGAUUCUGCGAAUUCUGCUGUAUAUCUC [A18G U41A A57U] yielded a self-cleavage of 0.07. UAACAGGGGGCCACAGCGGAAGCGUUCACGUCGCAGCCCCAGUCAGAUUCUGGUGAAUCUGCGGAUUCUGCUGAAUAUCUC [A18G U41A A64G U74A] gave a self-cleavage of 0.08. For UAACAGGGGGCCACAGCGGAAGCGUUCACGUCGCAGCCCCAGUCAGAUUCUGGUGAACCUGCGAAUUCUGCUGUAUAUCUC [A18G U41A U58C], the self-cleavage was 0.09. UAACAGGGGGCCACAGCGGAAGCGUUCACGUCGCAGCCCCAGUCAGAUUCUGGUGAAUCUGCGAAUUCUGCCGUAUAUCAC [A18G U41A U72C U80A] showed a self-cleavage of 0.25. With UAACAGGGGGCCACAGCGGAAGCGUUCACGUCGCAGCCCCCGUCGGAUUCUGGUGAAUCUGCGAAUACUGCUGUAUAUCUC [A18G U41C A45G U67A] the self-cleavage was 0.21. With UAACAGGGGGCCACAGCGGAAGCGUUCACGUCGCAGCCCCCGUCAGAUUCUGGUGAAUCUGCGAAUUCUGCUGUAUGUCUC [A18G U41C A77G] the self-cleavage was 0.64. For UAACAGGGGGCCACAGCGGAAGCGUUCACGUCGCAGCCCCCGUCAGAUUGUGGUGAAUCUGCGAAUUUUGCUGUAUAUCUC [A18G U41C C50G C68U], the self-cleavage was 0.14. Work on UAACAGGGGGCCACAGCGGAAGCGUUCACGUCGCAGCCCCCAUCGGAUUCUGGUGAAACUGCGAAUUCUGCUGUAAAUCUC [A18G U41C G42A A45G U58A U76A] yielded a self-cleavage of 0.37. With UAACAGGGGGCCACAGCGGAAGCGUUCACGUCGCAGCCCCCGUCACAUCCUGGUGAACCAGCGAAUUCUGCUGUAUAUCCC [A18G U41C G46C U49C U58C U60A U80C] the self-cleavage was 0.12. Variant UAACAGGGGGCCACAGCGGAAGCGUUCACGUCGCAGCCCCCGACAGACUCAGGUGAAUCUGCGAAUUCUGCUGGAUAUCUC [A18G U41C U43A U48C U51A U74G] has a self-cleavage of 0.42. With UAACAGGGGGCCACAGCGGAAGCGUUCACGUCGCAGCCCCCGACAGAUUCUGGUGAAUCUGCGAAUUCCGCUGUAUAUCUC [A18G U41C U43A U69C] the self-cleavage was 0.73. For UAACAGGGGGCCACAGCGGAAGCGUUCACGUCGCAGCCCCCGCCAGAUUUUGGUGAAUCUGCGAAUUCUGCUGUAUAUCUC [A18G U41C U43C C50U], the self-cleavage was 0.31. Work on UAACAGGGGGCCACAGCGGAAGCGUUCACGUCGCAGCCCCCGCCAGAUUCUGGUGAAGCUGCGAAUUCUGCUGUAUAUCUC [A18G U41C U43C U58G] yielded a self-cleavage of 0.4. UAACAGGGGGCCACAGCGGAAGCGUUCACGUCGCAGCCCCCGCCAGAUUCUGGUGAAUCUGCGAAUUCCGCUGUAUAUCCC [A18G U41C U43C U69C U80C] gave a self-cleavage of 0.31. In the case of UAACAGGGGGCCACAGCGGAAGCGUUCACGUCGCAGCCCCCGUCAGAGUCAGGUGAAUCAGCGAAUUCUCCUGUAUAUCUC [A18G U41C U48G U51A U60A G70C], the self-cleavage is reported as 0.06. For UAACAGGGGGCCACAGCGGAAGCGUUCACGUCGCAGCCCCCGUCAGAUCCUGGUGAAUCUGCGAAUUCUGCUGUAUAUCUC [A18G U41C U49C], the self-cleavage was 0.16. UAACAGGGGGCCACAGCGGAAGCGUUCACGUCGCAGCCCCCGUCAGAUUCUGGAGUAUCUGCGAAUUCUGCUGUAUAUCCC [A18G U41C U54A A56U U80C] showed a self-cleavage of 0.48. Variant UAACAGGGGGCCACAGCGGAAGCGUUCACGUCGCAGCCCCCGUCAGAUUCUGGAGACUCUGCGAAUUCUGCUGUACAUCUC [A18G U41C U54A A57C U76C] has a self-cleavage of 0.2. UAACAGGGGGCCACAGCGGAAGCGUUCACGUCGCAGCCCCCGUCAGAUUCUGGUGAACCUGCGAAUUCUGCUGUAUAUCUC [A18G U41C U58C] showed a self-cleavage of 0.45. In the case of UAACAGGGGGCCACAGCGGAAGCGUUCACGUCGCAGCCCCCGUCAGAUUCUGGUGAACCUGCGGAUACUGCUGUGUAUCUC [A18G U41C U58C A64G U67A A75G], the self-cleavage is reported as 0.1. UAACAGGGGGCCACAGCGGAAGCGUUCACGUCGCAGCCCCCGUCAGAUUCUGGUGAAUCCGCGAAUUCUGCUGUACAUCUC [A18G U41C U60C U76C] gave a self-cleavage of 0.24. Work on UAACAGGGGGCCACAGCGGAAGCGUUCACGUCGCAGCCCCCGUCAGAUUCUGGUGAAUCUGCGAAUUCUGCUGUAUACCAC [A18G U41C U78C U80A] yielded a self-cleavage of 0.38. For UAACAGGGGGCCACAGCGGAAGCGUUCACGUCGCAGCCCCGGUCAGAUUCUGGUGAGUCUGCGAAAUCUGCUGUAUAUCUC [A18G U41G A57G U66A], the self-cleavage was 0.08.
